Hit rate of the full screen: of about 360,000 compounds, about 17,000 (4.7%) were called active. The inconclusive results got no clear call from the source; some entries with a clear call stand among them for comparison. Cut-off read from the data, not from the text of the source: active = activity change below about -50%; inconclusive = mostly about -30% to -49%; inactive = weaker than that.
Test: qHTS for Inhibitors of Inflammasome Signaling: IL-1-beta AlphaLISA Primary Screen
Conditions: THP-1 LPS/ATP IL-1B secretion, 16 h; at 57.5 µM, active compounds read low
How it was run: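 Secreted IL-1B measured by AlphaLISA bead assay after 16 h compound exposure of THP-1 cells; compounds (final up to 57.5 uM) added 1 h before LPS (250 ng/mL) and ATP (1.25 mM) stimulation; lower signal means less secretion.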
In the case of `Cc1cccc(Cn2c(=O)c3c(nc4n3CCCN4Cc3ccccc3)n(C)c2=O)c1`, the activity change is reported as inconclusive: -31.1%.
For `Nc1nc(N)nc(-c2cc(O)ccc2O)n1`, the activity change was inconclusive: -36.1%.
In the case of `O=C(N/N=C/c1cccc(NC(=O)c2ccc(Cl)cc2)c1)c1ccc(O)cc1`, the activity change is reported as inconclusive: -30.6%.
With `FC(F)(F)c1ccc(N=Cc2sc(N3CCOCC3)nc2-c2ccccc2)cc1` the activity change was inactive: -17.7%.
In the case of `CCOc1cc(Br)ccc1S(=O)(=O)NCc1ccccc1`, the activity change is reported as inactive: 8.02%.
For `N=c1sccn1CC(=O)Nc1ccc([N+](=O)[O-])cc1Cl`, the activity change was inconclusive: -44.6%.
With `COc1ccc2ccccc2c1CN1CCN(C(=O)c2ccccc2)CC1` the activity change was inconclusive: -32.5%.
With `CC(C)N1CCN(c2ccc(OCC3COC(Cn4cncn4)(c4ccc(Cl)cc4Cl)O3)cc2)CC1` (stereo not given) the activity change was active: -53%.
For `COc1ccc(-c2nn(-c3ccccc3)cc2N)cc1`, the activity change was inconclusive: -35.6%.
With `COc1cc(C2C(C#N)=C(N)N(Nc3ccccc3)C3=C2C(=O)CC(C)(C)C3)ccc1OCc1ccccc1` (stereo not given) the activity change was inconclusive: -35.4%.
For `O=C(NNC(=O)C12CC3CC(CC(Cl)(C3)C1)C2)c1ccncc1`, the activity change was inactive: -2.02%.
With `CCc1nnc(NC(=O)c2nc(S(=O)(=O)Cc3ccc(C)cc3)ncc2Cl)s1` the activity change was active: -102%.
In the case of `CC(C)CNS(=O)(=O)c1ccc(CCC(=O)N2CCN(Cc3ccc4c(c3)OCO4)CC2)cc1`, the activity change is reported as inconclusive: -36.8%.
For `Cc1cc(C)n(-c2cc(N3CCN(C(=O)c4cccc(F)c4)CC3)ccc2[N+](=O)[O-])n1`, the activity change was inconclusive: -30.2%.
In the case of `COc1cc(S(=O)(=O)NCCOC23CC4CC(CC(C4)C2)C3)c(OC)cc1Cl`, the activity change is reported as active: -55.4%.
For `Cc1cccc(NC(=S)NC(C)(C)CC(C)(C)C)c1`, the activity change was inactive: -22.5%.
In the case of `O=S(=O)(c1ccc(NC(=S)N2CCN(c3ccccc3F)CC2)cc1)N1CCOCC1`, the activity change is reported as inconclusive: -49%.
With `Cn1c(=O)[nH]c2cc3ccccc3cc21` the activity change was inconclusive: -31.7%.
In the case of `CCOC(=O)C1=NN(c2ccccc2C)C2=NC(C)=C(C(=O)OC)C(c3cccc(OC)c3)N12` (stereo not given), the activity change is reported as inconclusive: -34.5%.
In the case of `COc1cc(SC)ccc1C(=O)NC1CCCCC1`, the activity change is reported as inconclusive: -39.8%.
For `Cc1nc2cc(-c3ccc(Cl)cc3)nn2c(C)c1CCC(=O)NC(C)c1ccc2c(c1)OCCO2` (stereo not given), the activity change was inconclusive: -33.3%.
In the case of `CCn1c(=O)c2cc(C(=O)NCCOC)sc2c2ccccc21`, the activity change is reported as inconclusive: -49.7%.
For `O=C(Nc1ccc(Cl)cc1)Nc1cc([N+](=O)[O-])ccc1F`, the activity change was inactive: 12.7%.
With `CN(CC(=O)Nc1ccc(Br)cc1)Cc1ccccc1` the activity change was active: -81.1%.
In the case of `O=C(c1cc2c(ccc3ccccc32)o1)N1CCCCC1`, the activity change is reported as inconclusive: -48.3%.
In the case of `O=S(=O)(NCC1CCCO1)c1cnc(Cl)c(Cl)c1` (stereo not given), the activity change is reported as active: -65.5%.
For `COc1cc(/C=C2\SC(=S)N(CCC(=O)NC3CCCC3)C2=O)cc(OC)c1OC`, the activity change was inconclusive: -37%.
For `COc1ccc(Cl)cc1NC(=O)CN(C)CC(=O)Nc1cccc(S(=O)(=O)N2CCCC2)c1`, the activity change was inconclusive: -46.8%.
For `O=C(CN1c2cccc3cccc(c23)S1(=O)=O)NCc1ccc(F)cc1`, the activity change was inconclusive: -30.4%.
For `O=C(Cc1ccccc1)Nc1ccc(NC(=O)c2ccccc2)c(Cl)c1`, the activity change was inconclusive: -31.7%.
For `CC(=O)NS(=O)(=O)c1ccc(NC(=O)c2cccc(S(=O)(=O)N3CCc4ccccc43)c2)cc1`, the activity change was inactive: 9.41%.
In the case of `Cc1ccc(O)c(NC(=O)Cc2ccc3ccccc3c2)c1`, the activity change is reported as active: -65.3%.
In the case of `CCOC(=O)C1CCN(C(=O)c2ccc(Br)o2)CC1`, the activity change is reported as inactive: 11.3%.
For `CN1CCN(CC#CCn2c3ccccc3c3ccccc32)CC1`, the activity change was inconclusive: -35%.
With `CC1CCN(c2cc(N3CCOCC3)c(F)cc2[N+](=O)[O-])CC1` the activity change was inconclusive: -33.5%.
For `OC[C@@H]1CN(Cc2cccs2)C[C@H](n2cnc3c(NC4CCCC4)ncnc32)O1`, the activity change was inactive: -3.1%.
For `CC(C)(C)c1ccc(NS(=O)(=O)c2ccc(N)cc2)cc1`, the activity change was inactive: -29.3%.
For `Cc1ccc(-c2csc(C3C(N)=NC(S)=C(C#N)C34CCCCC4)n2)cc1` (stereo not given), the activity change was inconclusive: -37.4%.
For `Cc1cc(C(=O)NNC(=O)c2ccc(NC(=O)CC#N)cc2)c(C)o1`, the activity change was inactive: 6.1%.
With `Cc1ccccc1NC(=O)NCCCCc1ccccc1` the activity change was inconclusive: -44%.
For `CC(C)c1ccc(N(CC(=O)NC2CCCC2)C(=O)CCC(=O)Nc2ccccn2)cc1`, the activity change was inconclusive: -30.3%.
For `Fc1cccc(Nc2nc(-c3ccncc3)nc3ccccc23)c1`, the activity change was inactive: -11.7%.
In the case of `Cc1ccc2c(C)c(C(=O)N(Cc3cccs3)C3CCS(=O)(=O)C3)oc2c1` (stereo not given), the activity change is reported as inconclusive: -32.2%.
With `CCc1ccc(NC(=O)CO/N=C(\C)c2cc3ccccc3o2)cc1` the activity change was inconclusive: -39.9%.
With `COc1ccc(CNC(=O)CN(C(=O)c2cc3sccc3n2C)C2CCCC2)cc1` the activity change was inconclusive: -32.7%.
In the case of `N=c1c(C(=O)NCCc2ccccc2)cc2c(=O)n3ccccc3nc2n1Cc1ccco1`, the activity change is reported as inconclusive: -41.4%.
For `CCN(CC(=O)Nc1c(F)cccc1F)C(=O)CCCc1cccs1`, the activity change was inactive: -14.7%.
In the case of `COc1cccc(C(=O)NCc2ccc3[nH]c(C)cc3c2)c1`, the activity change is reported as inactive: -1.8%.
In the case of `CN1CCN(/N=C/c2ccc(-c3ccc([N+](=O)[O-])cc3Cl)o2)CC1`, the activity change is reported as active: -80.5%.
With `Cc1ccc(NS(=O)(=O)c2ccc3c(c2)n(C)c(=O)n3C)cc1C` the activity change was inactive: 152%.
In the case of `O=C1NC[C@@H](c2ccccc2)OC(=O)[C@H](Cc2ccc(F)cc2)C/C=C\C[C@H]1CC(=O)N(CCO)Cc1ccccc1`, the activity change is reported as inconclusive: -45.8%.
For `COc1ccc(C(=O)NC(C)c2nnc(SCc3ccc(Cl)c(Cl)c3)n2C)cc1` (stereo not given), the activity change was inconclusive: -32.7%.
In the case of `Fc1cccc(Nc2c3c(nc4ccccc24)CCC3)c1`, the activity change is reported as inconclusive: -44.3%.
In the case of `Cc1cc(N2CCOCC2)c2c(N)c(Br)cc(C)c2n1`, the activity change is reported as inconclusive: -38.5%.
With `CCOc1ccc(Nc2oc(-c3ccco3)nc2C#N)cc1` the activity change was inconclusive: -41.3%.
% is set by controls: 0 for no effect and ±100 for the full control effect.
